In article PMC4336329 (PLoS ONE, 2015):
The campaign covered roughly 310,000 compounds. About 14,000 (4.5%) showed an effect of 50% or more. The effect is printed as a negative number. The list shows a part of the results.

What follows are compounds tested against human ether-à-go-go-related gene (hERG) potassium channel (human, UniProt Q12809) (assay: primary screen, population patch clamp on CHO cells stably expressing hERG).
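Note: peak tail current of the secondary pulse compared with the same well before compound.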

Chain of human ether-à-go-go-related gene (hERG) potassium channel (Q12809 whole entry, looked up): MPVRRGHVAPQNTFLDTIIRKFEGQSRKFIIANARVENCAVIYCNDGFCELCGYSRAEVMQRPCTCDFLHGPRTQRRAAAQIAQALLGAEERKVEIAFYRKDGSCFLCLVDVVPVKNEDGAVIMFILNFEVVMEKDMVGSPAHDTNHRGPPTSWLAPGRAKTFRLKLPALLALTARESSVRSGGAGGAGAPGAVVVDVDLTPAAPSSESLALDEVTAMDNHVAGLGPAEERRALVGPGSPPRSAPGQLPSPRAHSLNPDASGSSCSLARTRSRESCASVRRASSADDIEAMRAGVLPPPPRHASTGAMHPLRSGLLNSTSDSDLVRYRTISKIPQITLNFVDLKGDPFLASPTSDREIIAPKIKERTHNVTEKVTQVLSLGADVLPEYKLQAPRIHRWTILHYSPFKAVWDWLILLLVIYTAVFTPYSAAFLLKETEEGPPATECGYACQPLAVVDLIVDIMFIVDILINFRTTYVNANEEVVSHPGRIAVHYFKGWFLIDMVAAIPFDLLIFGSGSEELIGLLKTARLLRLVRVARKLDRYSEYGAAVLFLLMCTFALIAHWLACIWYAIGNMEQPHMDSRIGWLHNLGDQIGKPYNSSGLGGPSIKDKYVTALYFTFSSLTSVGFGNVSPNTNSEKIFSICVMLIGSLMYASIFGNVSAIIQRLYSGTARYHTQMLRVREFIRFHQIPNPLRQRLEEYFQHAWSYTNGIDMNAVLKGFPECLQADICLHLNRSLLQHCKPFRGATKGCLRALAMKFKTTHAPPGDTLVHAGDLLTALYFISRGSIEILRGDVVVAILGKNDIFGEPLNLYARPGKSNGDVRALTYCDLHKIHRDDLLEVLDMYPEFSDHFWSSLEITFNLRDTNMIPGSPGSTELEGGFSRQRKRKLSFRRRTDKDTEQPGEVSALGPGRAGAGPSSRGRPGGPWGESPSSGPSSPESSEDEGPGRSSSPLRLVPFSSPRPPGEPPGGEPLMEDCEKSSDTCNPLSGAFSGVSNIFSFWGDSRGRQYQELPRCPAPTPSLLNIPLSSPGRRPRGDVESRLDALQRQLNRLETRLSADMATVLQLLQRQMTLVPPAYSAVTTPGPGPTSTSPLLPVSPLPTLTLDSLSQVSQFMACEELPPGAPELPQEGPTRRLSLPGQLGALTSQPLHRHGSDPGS

Compound | hERG current change (%, negative = inhibition) at 10uM [%]
Cc1cc2cc(CN(CC3CCCO3)C(=S)Nc3ccccc3)c(=O)[nH]c2cc1C (stereo not drawn) | -14.8
COc1ccc(CC(=O)OC(C)C(=O)c2ccc(C)cc2)cc1 (stereo not drawn) | 20.4
O=C(Oc1ccc(Br)cc1C(=S)N1CCOCC1)c1ccc(F)cc1 | 9.32
O=C(CCCC1=NS(=O)(=O)c2ccccc2N1)N1CCN(c2ccccc2)CC1 | -1.79
COc1cc(C(=O)NCc2nnc(SCC(=O)Nc3cc(C)cc(C)c3)o2)cc(OC)c1OC | 4.31
CCCCCCNC(=O)N[C@H](C(=O)NCCC[C@H]1CN2C(=NC[C@H]2C)N1CCC(c1ccccc1)c1ccccc1)C(C)O (stereo partly drawn) | 3.37
N#CC1=C(N)C2=CCCC[C@H]2[C@H](c2ccccc2)C1(C#N)C#N | 5.83
CCOC(=O)c1cnc(-n2nc(C)cc2C)nc1NCCO | 10.5
CCOC(=O)CN1CC23C=CC(O2)C(C(=O)Nc2ccc4c(c2)OCO4)C3C1=O (stereo not drawn) | 4.95
CCOc1ccc(NCc2cccn2-c2nnc(N3CCC(C(=O)NCCCN4C(C)CCCC4C)CC3)s2)cc1 (stereo not drawn) | -69.3
O=C(Nc1c(C(=O)N2CCCCC2)cnn1-c1ccccc1)c1ccccc1 | 4.36
CC1CCCCN1CCCNC(=O)Cn1ncc2c([nH]c3ccccc32)c1=O (stereo not drawn) | 20.6
CCOc1cc(S(=O)(=O)NCCCN2CCOCC2)ccc1F | 3.16
COC(=O)c1ccc(/C=N/NC(=O)CC(=O)NCc2cccnc2)cc1 | 1.16
Cc1ccc(CN(C)C(=O)C2CCCN2C(=O)c2cccs2)o1 (stereo not drawn) | -4.28
O=C(Nc1ccc(F)cc1)C(c1ccccc1)N1CCN(S(=O)(=O)c2ccccc2)CC1 (stereo not drawn) | -5.63
COc1ccc(-c2cc(N)n(S(=O)(=O)c3c(F)c(F)c(F)c(F)c3F)n2)cc1OC | -10.3
O=C(Nc1nnc(SCc2ccccn2)s1)C1CC(=O)N(c2ccc(F)cc2)C1 (stereo not drawn) | -13.3
COc1ccc(Nc2nc(N)nc(CN3CCc4ccccc4C3)n2)cc1 | -56.4
Cl.N/N=c1\sc2ccccc2n1-c1ccccc1 | 2.94
C=CCOC(=O)C1=C(C)N(C)C(=O)NC1c1cc2c(cc1Br)OCO2 (stereo not drawn) | -5.15

Compound | hERG current change (%, negative = inhibition) at 10uM [%]
CN1CCN(c2ccc(NS(=O)(=O)c3ccc(Cl)cc3)cn2)CC1 | -40.2
CCCS(=O)c1nc(C)cc(C)c1S(C)(=O)=O (stereo not drawn) | 11.3
CCCCC(=O)N(Cc1ccc2c(c1)OCO2)Cc1nc2ccccc2c(=O)[nH]1 | -4.23
Cc1ccc(N(CC(=O)NCCc2ccc(Cl)cc2)S(=O)(=O)c2c(C)noc2C)cc1 | 8.71
COc1ccc(OCC(=O)N2CCC3(CC2)CC(=O)c2ccccc2O3)cc1 | -88.9
Cc1ccc(C)c(NC(=O)C2CCCN(S(=O)(=O)c3c(C)noc3/C=C/N(C)C)C2)c1 (stereo not drawn) | 8.52
S=c1[nH]nc(-c2cnccn2)n1-c1ccccc1 | 16
COCCN(C(=S)Nc1cccc(C)c1)C(C)c1cccs1 (stereo not drawn) | 7.09
O=C(C1=C[C@H](C2CCCCC2)C[C@H](OCc2ccc(CO)cc2)O1)N1CCN(Cc2ccc3c(c2)OCO3)CC1 | -18.3
O=C(NCCCn1ccnc1)/C(=C\c1cccs1)NC(=O)c1cccs1 | -62
COc1ccc(Cl)cc1NC(=O)CCc1nnc2ccc(N3CCC4(CC3)OCCO4)nn12 | 22.8
Cc1nc2cc(NC(=O)Nc3ccc(Br)cc3)ccc2o1 | 9.81
CCOc1ccc(NC(=O)CCNS(=O)(=O)c2ccc3c(c2)oc(=O)n3C)cc1 | 13.2
O=S(=O)(c1ccccc1)c1ccc(C(F)(F)F)cn1 | 12.7
CCCCN(C(=O)CC1CCCCC1)c1c(N)n(CC(C)C)c(=O)[nH]c1=O | 1.32
C=CCn1c(-c2cc3c(s2)CCC(CC)C3)n[nH]c1=S (stereo not drawn) | 7.79
NS(=O)(=O)c1cnccc1Nc1ccc(Cl)cc1 | -6.71
CCOC(=O)c1ccccc1N1C(=O)CSC1=S | 8.78
CN(NC1OC(=O)c2ccccc21)c1ccc(Cl)cc1[N+](=O)[O-] (stereo not drawn) | 6.32
COc1ccccc1N(CC(=O)NCCSc1ccccc1)S(=O)(=O)c1ccccc1 | -13.2
CCSc1nc(C)nc2c1oc1ccccc12 | 12.3

Compound | hERG current change (%, negative = inhibition) at 10uM [%]
CN(Cc1ccccc1NC(=O)c1ccc(S(=O)(=O)N(C)C)cc1)C1CCCCC1 | -2.72
Cc1ccc2[nH]cc(S(=O)(=O)c3ccc(C(C)C)cc3)c(=O)c2c1 | 25.5
O=C(/C=C/c1cccc([N+](=O)[O-])c1)N1CCOCC1 | -3.86
Cc1ccccc1Oc1nc2c(C)cccn2c(=O)c1/C=C(\C#N)C(=O)Nc1c(C)n(C)n(-c2ccccc2)c1=O | -1.62
Cc1cnc(NC(=O)C2CCCC2)s1 | 23.2
COc1ccc(C[C@](C)(N)C(=O)O)cc1OC.Cl | 7.36
O=C(Cc1ccccc1)Nc1c2c(nn1-c1cccc(Cl)c1)CS(=O)(=O)C2 | -76.2
Cc1ccc(C)c(S(=O)(=O)NCCCN2CCOCC2)c1 | 10.6
Nc1cc2nc3ccccc3oc-2cc1=O | 3.38
COc1ccc([C@H]2CC(=O)C=C(c3ccc(C)c([N+](=O)[O-])c3)C2)cc1 | 21.2
Cc1ccc(C(=O)N2CCCC(C(=O)Nc3cccc(-c4ccc(F)cc4)c3)C2)cn1 (stereo not drawn) | -29.1
COc1ccc(OC)c(NC(=O)CCNS(=O)(=O)c2cccc3nsnc23)c1 | -5.2
COc1ccc(C2C(C#N)=C(N)Oc3cc(C)n(CCN4CCOCC4)c(=O)c32)cc1OC (stereo not drawn) | 14.6
O=C(Nc1c(C(=O)N2CCOCC2)cnn1-c1ccccc1)c1ccc([N+](=O)[O-])cc1 | -16
O=C(CSc1nnc2ccccn12)NC(=O)c1ccccc1 | -0.549
CC(Sc1nc(-c2ccccc2)cc(C(F)(F)F)n1)C(=O)N1CCOCC1 (stereo not drawn) | -3.84
CC(=O)Nc1nc2c(F)cccc2s1 | 4.78
COC(=O)c1ccc(COc2ccc(C#N)cc2)o1 | 4.61
COC(CNC(=O)c1cc(S(=O)(=O)N2CCc3ccccc32)ccc1F)OC | 8.18
CC(C)[C@H](NC(=O)[C@@H]1Cc2c([nH]c3ccccc23)C2c3ccccc3C(=O)N21)C(=O)N1CCC[C@@H]1C(=O)O (stereo partly drawn) | 16.9
Cc1cc(Cl)ccc1OCC(=O)N[C@@H](Cc1ccccc1)c1nc2ccccc2[nH]1 | -18.5

Compound | hERG current change (%, negative = inhibition) at 10uM [%]
Cc1cc(Cl)ccc1OCC(=O)NNC(=O)C1CCN(c2ncnc3sc(C)c(C)c23)CC1 | 5.64
Cc1ccc(NC(=O)Nc2ccccc2CC[N+](=O)[O-])cc1 | 8.47
CCc1ccc(NC(=O)C(C)OC(=O)/C=C/c2cccc([N+](=O)[O-])c2)cc1 (stereo not drawn) | -9.12
CC1(C)CC(=O)C=C(NC2CCCCC2)C1 | 9.87
CCc1ccc(C2C(C#N)=C(N)Oc3cc(N)ccc32)cc1 (stereo not drawn) | -2.05
CC(=O)N1CCc2cc(S(=O)(=O)NC(C(=O)NC(C)c3ccccc3)C(C)C)ccc21 (stereo not drawn) | 25.6
COc1cccc2c1[C@@H]1CN(CCCCn3c(=O)[nH]c4c(sc5ncc(-c6ccccc6)nc54)c3=O)C[C@@H]1CO2.Cl | -67.6
CCNC(=O)/C(=C/c1ccco1)NC(=O)/C=C/c1ccccc1 | 16.6
COc1cc(/C=C/C(=O)Nc2ccccc2C(F)(F)F)cc(OC)c1OC | -5.76
C/C(Cl)=C/Cn1c(N2CCCC2)nc2c1c(=O)[nH]c(=O)n2C | -29.9
CCOC(=O)CC(NS(=O)(=O)c1ccc(OC)c(C)c1)c1cccc([N+](=O)[O-])c1 (stereo not drawn) | -24.8
CCOC(=O)c1ccc(N(C(=O)c2ccco2)C(C(=O)NC2CCCCC2)c2ccncc2)cc1 (stereo not drawn) | 9.01
CCC(=O)NCCn1ccc2ccccc21 | 5.88
CCOC(=O)C1CCN(Cc2cnc(Oc3ccc(Cl)cc3C)s2)CC1 | -33.3
COc1ccc(OC)c(NC(=O)CSc2nnc(Cc3cccn3C)n2-c2ccc(F)cc2)c1 | -10.4
Cc1ccc(CNC(=O)Cn2cnc(S(=O)(=O)N3CCCCC3)c2)o1 | -2.35
O=[N+]([O-])c1ccc(Cl)c(-c2ccc(/C=N/c3c(-c4ccco4)nc4ccccn34)o2)c1 | 8.5
O=C(C1=C(O)C(=O)N(CCCN2CCOCC2)C1c1ccc(Cl)cc1)c1cc2ccccc2o1 (stereo not drawn) | 18.9
CC(C#N)(NC(=O)CN1CCN(S(=O)(=O)c2ccccc2C#N)CC1)C1CC1 (stereo not drawn) | 2.51
O=C(COC(=O)c1ncc(Cl)c(Cl)c1Cl)NCc1ccccc1 | 2.42
CCOc1ccc(C(=O)NC2CCCCCCC2)cc1 | 4.13
